# Reference: PubChem BioAssay AID1347073 (National Center for Advancing Translational Sciences (NCATS), 2019)
# In all, about 45,000 compounds went through this assay and about 200 (0.44%) were called active. Inconclusive results (about 7%) are left out. Calls follow the shape of the dose curve; as a rule, active = well fitted activation curve with a large enough effect; inconclusive = small, poorly fitted or top-dose-only effect; inactive = no such curve, though single readings can be large or run the other way. Some of the results follow.
# Assay: qHTS of TDP-43 Inhibitors: NCGC Sytravon Library Screen; also: 0% is about no effect; nearly all actives have a fitted effect of over 55% in size
# Conditions: yeast TDP-43 toxicity rescue, BacTiter-Glo growth, 24 h; series mostly up to 46.1 µM; growth rescue (activation): at the top concentration
# How it was run: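 TDP-43-expressing yeast, pregrown in raffinose, seeded at OD600 0.02 in galactose medium with compound for 24 hr at 30 deg C. Growth read by BacTiter-Glo luminescence, so rescue of toxicity appears as activation.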
row,Structure (SMILES),growth rescue (activation)
1,O=C(NC(=S)Nc1ccc(N2CCCCC2)cc1)c1ccc2c(c1)OCCO2,inactive: 17.6%
2,CCn1c(O)c(N=NC(=O)C(O)c2ccccc2)c2ccccc21 (centres undefined),inactive: -22.5%
3,CCCCOc1ccc(OCCNC(=O)C2CCCN2C(=O)Nc2ccccc2)cc1 (centres undefined),inactive: -5.74%
4,COc1ccccc1NC(=O)Cc1nnc(SCC(=O)NC2CCCCC2)n1C,inactive: 0.664%
5,COc1cccc(CNc2ncnc3cc(Cl)ccc23)c1,inactive: -4.91%
6,Cc1cc(Br)ccc1NC(=O)CNC(=O)CN(C)C1CCS(=O)(=O)C1 (centres undefined),inactive: 7.31%
7,Cc1ccc(OCC(=O)N2CCN(S(=O)(=O)c3ccc(Cl)cc3)CC2)c([N+](=O)[O-])n1,inactive: 1.55%
8,Cc1c(Cl)cccc1NC(=O)N1CCN(C(=O)c2ccco2)CC1,inactive: 5.74%
9,Cc1ccccc1SCCNC(=O)c1ccccc1Br,inactive: -1.46%
10,C=CCN(C(=O)Nc1ccc(OC)cc1)c1nnc(-c2ccncc2)s1,inactive: 13.7%
11,Cc1ccnc(NC(=O)CN2C(=O)c3ccccc3C2=O)c1,inactive: 3.61%
12,Cc1ccc(S(=O)(=O)Nc2ccc(S(=O)(=O)NCC3CCCO3)cc2)cc1 (centres undefined),inactive: 7.99%
13,Cc1cc(NC(=O)CS(=O)CC(=O)Nc2c(C)cccc2C)ccc1-n1cnnn1 (centres undefined),inactive: 5.73%
14,Cc1ccc(NC(=O)NC(=O)COc2c(F)c(F)cc(F)c2F)c(C)c1,inactive: -5.44%
15,O=C(CN1CCC(C(=O)c2ccc(F)cc2)CC1)Nc1ccccc1Cl,inactive: -3.51%
16,Cc1ccc(NC(=S)NCCc2ccccc2)nc1,inactive: 11%
17,Cc1ccc(/C=C/C(=O)NCCCN2CCN(CCCNC(=O)/C=C/c3ccc(C)o3)CC2)o1,inactive: 13%
18,O=C(N/N=C/c1cc(O)ccc1[N+](=O)[O-])c1ccc2c(c1)OCCO2,inactive: 24.1%
19,O=c1[nH]cnc(O)c1C(c1cccc([N+](=O)[O-])c1)c1c(O)nc[nH]c1=O,inactive: -6.85%
20,O=C(c1ccco1)N1CCN(S(=O)(=O)Cc2ccccc2Cl)CC1,inactive: -18.4%
21,CCOc1ccc(S(=O)(=O)NCc2cccnc2)cc1C,inactive: -8.87%
22,O=C(C1CCN(S(=O)(=O)c2cc(Cl)ccc2Cl)CC1)N1CCOCC1,inactive: 6.99%
23,CCc1ccc(N(CC(=O)NCc2ccco2)C(=O)CCC(=O)Nc2ccccn2)cc1,inactive: 0.126%

row,Structure (SMILES),growth rescue (activation)
1,Cc1ccc(OCC(=O)N2CCOCC2)cc1C,inactive: -3.49%
2,C/C(=N\NC(=O)c1ccc(Cl)c(Cl)c1)c1ccccn1,inactive: 27.6%
3,CN(C)C(=O)C1Cc2ccccc2CN1S(=O)(=O)c1cccs1 (centres undefined),inactive: 4.91%
4,COc1ccc2[nH]c(=O)c(CN(C(=O)c3cccnc3)c3ccc(C)cc3C)cc2c1,inactive: 4.74%
5,COc1ccc([N+](=O)[O-])cc1NC(=O)Cc1ccc(Cl)cc1,inactive: 11.9%
6,Oc1c(C=Nc2ccccc2)sc2ccccc12,inactive: 6.93%
7,COc1ccccc1N(C)S(=O)(=O)c1ccc(C(=O)Nc2cccc(Br)c2)cc1,inactive: 5.78%
8,CC(C)Nc1nc(NC(C)C)nc(Nn2cnnc2)n1,inactive: -12.2%
9,O=S(=O)(NCc1ccccc1)NCc1ccccc1,inactive: 7.85%
10,COc1ccc(NC(=O)CSc2nnc(NC(=O)C3CCC3)s2)cc1,inactive: 13.3%
11,Cc1ccccc1Nc1nc(N)nc(CSc2nnc(-c3ccccc3)n2C)n1,inactive: 33.1%
12,CCCc1cc(=O)[nH]c(SCc2nc3ccc([N+](=O)[O-])cc3[nH]2)n1,inactive: 20.6%
13,Cc1ccc(NC(=O)COC(=O)Cc2ccc(Br)cc2)cc1S(=O)(=O)N1CCOCC1,inactive: -2.42%
14,O=S(=O)(NCc1ccccc1F)NCc1ccccc1F,inactive: 17.2%
15,Cc1ccsc1C(=O)NCCC(c1ccccc1)c1ccccc1,inactive: 26%
16,CC(C)Nc1ncnc2c1ncn2[C@H]1CN(C2CCCC2)C[C@@H](CO)O1,inactive: -2.59%
17,Cc1ccc(C(C)C)c(OCC(O)CN(C)Cc2ccccc2)c1 (centres undefined),inactive: 3.37%
18,COc1ccc(C2CC(c3cccs3)=NN2C(=O)CCC(=O)O)cc1OC (centres undefined),inactive: -1.16%
19,CN(CC(=O)Nc1ccc(F)cc1Cl)Cc1cccs1,inactive: 11%
20,O=C1NN(c2ccc(Br)cc2)C(=O)/C1=C\c1ccc(O)cc1O,inactive: -0.864%
21,COc1ccc(Oc2nc3c(C)cccn3c(=O)c2/C=C(\C#N)c2nc3ccccc3[nH]2)cc1,inactive: 16%
22,O=S(=O)(c1cccc(-c2cn3cccnc3n2)c1)N1CCCCCC1,inactive: 17.4%
23,CC(=O)Nc1ccc(N(C(=O)c2ccco2)C(C(=O)NC2CCCC2)c2ccc(N3CCOCC3)cc2)cc1 (centres undefined),inactive: 5.47%

row,Structure (SMILES),growth rescue (activation)
1,CCOC(=O)c1c(NC(=O)c2cccs2)sc(C)c1C,inactive: 8.79%
2,Cc1cscc1-c1cc2nc(NCCCN(C)C)n(C)c(=O)c2s1,inactive: 5.81%
3,COc1cccc(CN(C)C(=O)C23CC4CC(CC(C4)C2)C3)c1,inactive: 22.8%
4,COc1ccc(N2CCN(CC(=O)Nc3ccccc3SC)CC2)cc1,inactive: 14.7%
5,O=C(COC(=O)c1cccc(C(F)(F)F)c1)NC(=O)NC1CCCC1,inactive: 19.7%
6,CC1(C(=O)Nc2cccnc2)Cc2c(-c3ccccc3)ccnc2O1 (centres undefined),inactive: 6.63%
7,CC(C)c1ccccc1OCCNC(=O)c1cccnc1,inactive: 8.5%
8,CCN(CC)CCN1C(=O)c2oc3ccccc3c(=O)c2C1c1ccc(C)cc1 (centres undefined),inactive: -40.9%
9,O=C(COc1ccc(S(=O)(=O)N2CCOCC2)cc1)N1CCN(c2ccccc2)CC1,inactive: 13.2%
10,Cc1cc(Nc2ccc(C)c(Cl)c2)nc(N2CCOCC2)n1,inactive: 18.5%
11,O=C(Cc1c(F)cccc1Cl)Nc1ccc(S(=O)(=O)NCC2CCCO2)cc1 (centres undefined),inactive: -9.16%
12,CC(C)(C)CC(=O)N[C@@H](Cc1ccccc1)c1nc2ccccc2[nH]1,inactive: 1.39%
13,CCn1c(SCC(=O)N2CCN(c3ccc(F)cc3)CC2)nc2ccccc2c1=O,inactive: -4.5%
14,COC(=O)Cn1c(=O)c2c(nc3n2CCCN3CCc2ccccc2)n(C)c1=O,inactive: 2.2%
15,Cc1ccccc1-c1ocnc1C(=O)Nc1ccccc1NC(=O)c1ccccn1,inactive: 7.37%
16,O=C(Nc1ccc(S(=O)(=O)Nc2nccs2)cc1)C1CC(=O)N(c2ccccc2)C1 (centres undefined),inactive: 1.47%
17,Clc1ccc(N2CCN(c3nc4nonc4nc3N3CCSCC3)CC2)nc1,inactive: -1.89%
18,O=C1CCC(C(=O)OCC(=O)c2c[nH]c3ccccc23)=NN1,inactive: 0.727%
19,Cc1occc1C(=O)Nc1ccc(S(N)(=O)=O)cc1,inactive: -9.46%
20,O=C1COc2ccc(C(=O)COC(=O)c3cnc(Cl)c(Cl)c3)cc2N1,inactive: 7.82%
21,CCn1c(=S)[nH]c2cc(S(=O)(=O)N3CCOCC3)ccc21,inactive: 7.94%
22,CN(CCc1ccccn1)C(=O)CCC1CCCN(Cc2ccccc2OC(F)F)C1 (centres undefined),inactive: 1.51%
23,CC(=O)C1=C(O)C(=O)OC1c1ccc(Cl)cc1 (centres undefined),inactive: -24.9%
